# Source: the supplement of paper PMC8728848
# The list shows a part of the results.
# B1: OVGAL11 (Ovis aries), AAF64320 (protein)
# chain: MDSLPNPYLQSVSLTVCYMVKIKANLLSAFGKNPELQVDFGTGTGQGGNIPFRFWYCDGMVVMNTFTDGSWQKEEKVLTDAFVPGQPFELQFLVLEKEYQVFVKNKPICQFAHRLPLQSVKMLDVRGDIVLTSVDTL
# Legend:
# Assay in all cases: glycan array binding signal (z-score within array); higher = stronger binding
# Conditions in all cases: glycan notation: IUPAC condensed, linker removed
# [1] = target: Neu5Ac(a2-3)Gal(b1-4)GlcNAc(b1-6)GalNAc
# Outline: (§1)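 Glycan array data came from 3228 arrays in the Consortium for Functional Glycomics database, and only arrays with an available protein sequence were kept. Glycan names were put into IUPAC-condensed notation, and columns mapping to the same glycan were averaged. The binding signal is a within-array Z-score, averaged across arrays of one protein sequence run at different concentrations or buffers and across linkers. A negative Z-score can be read as non-binding.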
# [2] = target: Neu5Ac(a2-3)Gal(b1-4)GlcNAc(b1-6)[Gal(b1-3)]GalNAc
# Outline: as §1
# [3] = target: Neu5Ac(a2-3)Gal(b1-4)GlcNAc(b1-6)[Neu5Ac(a2-3)Gal(b1-3)]GalNAc
# Outline: as §1
# [4] = target: Neu5Ac(a2-3)Gal(b1-4)GlcNAc6S
# Outline: as §1
# [5] = target: Neu5Ac(a2-3)Gal(b1-4)[Fuc(a1-3)]GlcNAc
# Outline: as §1
# [6] = target: Neu5Ac(a2-3)Gal(b1-4)[Fuc(a1-3)]GlcNAc(b1-2)Man
# Outline: as §1
# [7] = target: Neu5Ac(a2-3)Gal(b1-4)[Fuc(a1-3)]GlcNAc(b1-3)Gal
# Outline: as §1
# [8] = target: Neu5Ac(a2-3)Gal(b1-4)[Fuc(a1-3)]GlcNAc(b1-3)Gal(b1-4)GlcNAc
# Outline: as §1
# [9] = target: Neu5Ac(a2-3)Gal(b1-4)[Fuc(a1-3)]GlcNAc(b1-3)Gal(b1-4)[Fuc(a1-3)]GlcNAc(b1-3)Gal(b1-4)[Fuc(a1-3)]GlcNAc
# Outline: as §1
# [10] = target: Neu5Ac(a2-3)Gal(b1-4)[Fuc(a1-3)]GlcNAc(b1-3)GalNAc
# Outline: as §1
# [11] = target: Neu5Ac(a2-3)Gal(b1-4)[Fuc(a1-3)]GlcNAc(b1-6)[Gal(b1-3)]GalNAc
# Outline: as §1
# [12] = target: Neu5Ac(a2-3)Gal(b1-4)[Fuc(a1-3)]GlcNAc(b1-6)[Neu5Ac(a2-3)Gal(b1-3)]GalNAc
# Outline: as §1
# [13] = target: Neu5Ac(a2-3)Gal(b1-4)[Fuc(a1-3)]GlcNAc6S
# Outline: as §1
# [14] = target: Neu5Ac(a2-3)Gal6S(b1-4)GlcNAc
# Outline: as §1
# [15] = target: Neu5Ac(a2-3)Gal6S(b1-4)[Fuc(a1-3)]GlcNAc
# Outline: as §1
# Neu5Ac(a2-3)GalNAc = target: Neu5Ac(a2-3)GalNAc
# Outline: as §1
# [16] = target: Neu5Ac(a2-3)GalNAc(b1-4)GlcNAc
# Outline: as §1
# [17] = target: Neu5Ac(a2-3)[GalNAc(b1-4)]Gal(b1-4)Glc
# Outline: as §1
# [18] = target: Neu5Ac(a2-3)[GalNAc(b1-4)]Gal(b1-4)GlcNAc
# Outline: as §1
# [19] = target: Neu5Ac(a2-3)[GalNAc(b1-4)]Gal(b1-4)GlcNAc(b1-3)GalNAc
# Outline: as §1
# [20] = target: Neu5Ac(a2-3)[Neu5Ac(a2-6)]GalNAc
# Outline: as §1
# Neu5Ac(a2-6)Gal = target: Neu5Ac(a2-6)Gal
# Outline: as §1
# [21] = target: Neu5Ac(a2-6)Gal(b1-3)GlcNAc(b1-3)[Gal(b1-4)GlcNAc(b1-6)]Gal(b1-4)Glc
# Outline: as §1
# Neu5Ac(a2-6)Gal(b1-4)Glc = target: Neu5Ac(a2-6)Gal(b1-4)Glc
# Outline: as §1
# [22] = target: Neu5Ac(a2-6)Gal(b1-4)GlcNAc
# Outline: as §1
# [23] = target: Neu5Ac(a2-6)Gal(b1-4)GlcNAc(b1-2)Man
# Outline: as §1
# [24] = target: Neu5Ac(a2-6)Gal(b1-4)GlcNAc(b1-2)Man(a1-3)Man(b1-4)GlcNAc(b1-4)GlcNAc
# Outline: as §1
# [25] = target: Neu5Ac(a2-6)Gal(b1-4)GlcNAc(b1-2)Man(a1-3)[Gal(b1-4)GlcNAc(b1-2)Man(a1-6)]Man(b1-4)GlcNAc(b1-4)GlcNAc
# Outline: as §1
# [26] = target: Neu5Ac(a2-6)Gal(b1-4)GlcNAc(b1-2)Man(a1-3)[GlcNAc(b1-2)Man(a1-6)]Man(b1-4)GlcNAc(b1-4)GlcNAc
# Outline: as §1
# [27] = target: Neu5Ac(a2-6)Gal(b1-4)GlcNAc(b1-2)Man(a1-3)[GlcNAc(b1-4)][Neu5Ac(a2-6)Gal(b1-4)GlcNAc(b1-2)Man(a1-6)]Man(b1-4)GlcNAc(b1-4)GlcNAc
# Outline: as §1
# [28] = target: Neu5Ac(a2-6)Gal(b1-4)GlcNAc(b1-2)Man(a1-3)[Man(a1-6)]Man(b1-4)GlcNAc(b1-4)GlcNAc
# Outline: as §1
binder,measurement,setting,value
B1,glycan array binding signal (z-score),[1],-0.049
same,glycan array binding signal (z-score),[2],-0.11
same,glycan array binding signal (z-score),[3],-0.058
same,glycan array binding signal (z-score),[4],-0.299
same,glycan array binding signal (z-score),[5],-0.028
same,glycan array binding signal (z-score),[6],-0.13
same,glycan array binding signal (z-score),[7],-0.278
same,glycan array binding signal (z-score),[8],-0.217
same,glycan array binding signal (z-score),[9],-0.361
same,glycan array binding signal (z-score),[10],-0.056
same,glycan array binding signal (z-score),[11],-0.057
same,glycan array binding signal (z-score),[12],-0.021
same,glycan array binding signal (z-score),[13],-0.298
same,glycan array binding signal (z-score),[14],-0.168
same,glycan array binding signal (z-score),[15],-0.219
same,glycan array binding signal (z-score),Neu5Ac(a2-3)GalNAc,-0.207
same,glycan array binding signal (z-score),[16],-0.233
same,glycan array binding signal (z-score),[17],-0.126
same,glycan array binding signal (z-score),[18],-0.082
same,glycan array binding signal (z-score),[19],-0.043
same,glycan array binding signal (z-score),[20],-0.212
same,glycan array binding signal (z-score),Neu5Ac(a2-6)Gal,-0.053
same,glycan array binding signal (z-score),[21],-0.098
same,glycan array binding signal (z-score),Neu5Ac(a2-6)Gal(b1-4)Glc,-0.091
same,glycan array binding signal (z-score),[22],-0.149
same,glycan array binding signal (z-score),[23],-0.114
same,glycan array binding signal (z-score),[24],-0.056
same,glycan array binding signal (z-score),[25],-0.122
same,glycan array binding signal (z-score),[26],-0.107
same,glycan array binding signal (z-score),[27],-0.104
same,glycan array binding signal (z-score),[28],-0.073
